Results as given in PMC6919601, “Identification of Plasmodium dipeptidyl aminopeptidase allosteric inhibitors by high throughput screening” (PLoS ONE, 2019).
“And” between values parts separate entries of the source, which are not always exact repeats. Identical values can stand only once. In all, about 110,000 compounds went through this assay and about 230 (0.21%) showed an effect of 50% or more. The list shows a part of the results.

The compounds below were run against DPAP1 (Plasmodium falciparum, UniProt Q8IIJ9) (assay: primary screen, percent inhibition; read by cleavage of a fluorogenic dipeptide substrate; higher = more effect of the substance).
DPAP1, sequence (Q8IIJ9 whole entry, looked up): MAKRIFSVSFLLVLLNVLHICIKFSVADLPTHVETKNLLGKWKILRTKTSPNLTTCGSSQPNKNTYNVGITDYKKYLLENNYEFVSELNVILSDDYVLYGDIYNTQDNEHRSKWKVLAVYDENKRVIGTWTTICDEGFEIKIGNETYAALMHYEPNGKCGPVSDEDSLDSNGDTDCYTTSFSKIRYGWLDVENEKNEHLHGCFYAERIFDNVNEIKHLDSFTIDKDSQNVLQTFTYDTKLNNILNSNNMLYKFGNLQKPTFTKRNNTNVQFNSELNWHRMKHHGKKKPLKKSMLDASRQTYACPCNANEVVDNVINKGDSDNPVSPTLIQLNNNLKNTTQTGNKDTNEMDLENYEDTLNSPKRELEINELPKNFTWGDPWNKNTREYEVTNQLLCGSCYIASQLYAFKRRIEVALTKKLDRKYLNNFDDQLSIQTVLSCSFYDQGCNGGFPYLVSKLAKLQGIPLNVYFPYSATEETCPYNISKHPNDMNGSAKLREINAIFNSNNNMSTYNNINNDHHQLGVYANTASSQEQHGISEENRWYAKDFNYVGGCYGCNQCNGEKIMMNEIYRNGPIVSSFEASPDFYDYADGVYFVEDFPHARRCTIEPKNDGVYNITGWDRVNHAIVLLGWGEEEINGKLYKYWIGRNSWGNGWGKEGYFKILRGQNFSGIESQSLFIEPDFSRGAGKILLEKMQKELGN
Set-up: species or system P. falciparum D10 trophozoite lysates; single well
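Further: 30 min substrate incubation versus DMSO and 10 µM JCP410 controls.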

Structure (SMILES)	% Inhibition @ 10 uM
CN1C(C(=O)N2CCc3ccccc3C2)=CC(c2ccc(F)cc2)=NS1(=O)=O	2.32%
CC(=O)c1ccc(N2CCOCC2)c(F)c1	-3.88%
CCOc1ccc(C(=O)Nc2ccc(C(C)C)cc2)cc1	-9.68%
CCNC(=S)N(CCc1c(C)[nH]c2ccc(F)cc12)Cc1ccncc1	0.121%
COC(=O)c1c(-c2ccccc2Cl)csc1NC(=O)CCC(=O)O	-2.9%
Cc1cc(-c2ccccc2)nc2cc(C(=O)N3CCCCC3)nn12	-2.53%
O=C(CSCC(=O)Nc1ccc2c3c(cccc13)CC2)NCCc1ccccc1	-0.496%
Cc1ccc2c(c1)-c1c(cnn1CC(=O)NCCc1ccc(S(N)(=O)=O)cc1)CO2	-1.53%
c1ccc(C(c2ccccc2)N2CCN(C(c3ccccc3)c3ccccc3)CC2)cc1	-3.98% and -0.239%
c1ccc(Sc2ccccc2CN2CCCC2)cc1	2.38%
CCCCN1CCCCC1C(=O)Nc1c(C)cc(C)cc1C (stereo not shown)	-2.77%
Cc1cc(N2N=C(c3ccc(Br)cc3)CC2c2ccccc2)nc(-c2ccccc2O)n1 (stereo not shown)	-1.5%
COc1ccc(NS(=O)(=O)C[C@H](CCc2ccccc2)NC(=O)C2(NC(=O)c3ccc(-c4csc(N5CCN(C)CC5)n4)cc3)CCCCC2)cc1	15.9%
Cc1nnc(N2CCCC(C(=O)NCCCN3CCN(C)CC3)C2)c2nn(-c3ccccc3)c(C)c12 (stereo not shown)	3.08%
COc1ccc(CCNC(=O)c2cncc(NS(=O)(=O)c3ccc(Cl)cc3)c2)cc1OC	-3.77%
CCCN1CCN(C(=O)c2oc3ccccc3c2NC(=O)C2CC2)CC1	-3.65%
CCOc1ccc2nc(NC(=O)c3cc(=O)c4cc(C)ccc4o3)sc2c1	0.248%
COc1cccc(S(=O)(=O)N2CCN(c3ccc(Cl)c(Cl)c3)CC2)c1	1.88%
c1ccc(Cc2nnc3sc(C4COc5ccccc5O4)nn23)cc1 (stereo not shown)	1.54%
CCOC(=O)C1CCCN(Cc2cccc(Cl)c2)C1 (stereo not shown)	-6.82%
CCn1c(C(=O)NCc2ccc(OC)cc2)cc2sccc21	-3.08%
Cc1cccc(-c2nc(CS(=O)CC(=O)N3CCN(c4ccccn4)CC3)c(C)o2)c1 (stereo not shown)	-8.65%
CC(C)/N=C/c1c(O)[nH]c2ccccc12	-3.74%
C=CCNC(=O)c1ccccc1Cl	5.91%
CC(C)CC(C(=O)NCC#N)c1cccc(-c2cccc([N+](=O)[O-])c2)c1 (stereo not shown)	0.173%

Structure (SMILES)	% Inhibition @ 10 uM
CCOC(=O)c1c(NC(=O)CSc2ncnc3sc4c(c23)CCCC4)sc(C)c1C	-5.28%
COc1ccccc1C1CC(=O)NC(C)=C1C(=O)OCc1ccc2c(c1)OCO2 (stereo not shown)	0.205%
CCN(CC)S(=O)(=O)c1cc(-c2nn3c(C)nnc3c3ccccc23)ccc1C	0.776%
Cc1ccc(-c2csc(/C(C#N)=C/c3ccccc3F)n2)cc1	5.01%
COc1ccc(OCCSc2nnnn2-c2ccccc2)cc1	1.25%
O=C(OCCCN1CCOCC1)c1ccc(O)cc1	3.47%
NC(=O)C1CCCN(Cc2ccc(F)cc2F)C1 (stereo not shown)	-0.446%
O=C(NC1CCCCC1)C1CCCN(S(=O)(=O)N2CCCCC2)C1 (stereo not shown)	-4.99%
CCCCNC(=O)NCCOC(=O)Nc1ccc(C)cc1	-11%
CCOC(=O)C1=C(CN2CCN(c3ncccn3)CC2)NC(=O)NC1c1cccc(OC)c1OC (stereo not shown)	-1.3%
CC1CN(C(=O)CCCOc2ccc(Cl)cc2Cl)CC(C)O1 (stereo not shown)	2.22%
O=C(O)CC(NC(=O)OCc1ccccc1)c1ccccc1 (stereo not shown)	-7.08%
Cc1nonc1CC(=O)O	-1.07%
CC1(C)C/C(=C(\C#N)C(N)=O)CCO1	2.16%
CN(Cc1ccccc1)C(=O)Cn1nnc2sc3c(c2c1=O)CCC(C(C)(C)C)C3 (stereo not shown)	-6.43%
Cc1ccc(OCC(=O)Nc2ccc(S(=O)(=O)Nc3ccc(F)cc3)cc2)cc1	3.35%
Cc1cccc2c1NC(=O)C2(c1c(C)n(C)n(-c2ccccc2)c1=O)c1c(C)n(C)n(-c2ccccc2)c1=O	-0.636%
CC1=C(C(=O)OCc2ccccc2)C(c2ccc(C)cc2)C2=C(O)CC(C)(C)CC2=N1 (stereo not shown)	7.56%
CC(C)CCOc1ccc(S(=O)(=O)NCCOc2ccccc2)cc1C(N)=O	-4.42%
N#Cc1c(N)oc2nnc(-c3cccnc3)c-2c1-c1c(O)[nH]c2ccc(Br)cc12	-4.4%
Cc1cccc(OCC(=O)Nc2ccc(C(N)=O)cc2)c1	3.8%
COc1ccc(/C(O)=C/C=N/c2ccc(O)cc2)cc1OC	-0.638%
COc1cc(C(=O)ON=C2C=CC(=O)C=C2)cc(OC)c1OC	0.146%
COc1ccc(-c2nn(C)c3sc(C(=O)NC(C)C)cc23)cc1OC	-2.29%
Nc1ccccc1C(=O)Nc1cc(C(=O)O)cc(C(=O)O)c1	-3.39%

Structure (SMILES)	% Inhibition @ 10 uM
O=C(CCc1nc(-c2ccc(Cl)cc2)no1)N1CCOCC1	-3.12%
c1ccc(C2=NCCn3cccc32)cc1	-4.75% and -2.03%
CCOc1ccc(C2C3=C(O)CC(C)(C)CC3=NC(C)=C2C(=O)Nc2cccc(C)n2)cc1 (stereo not shown)	1.08%
C=CCOc1ccc(C(=O)N(Cc2ccc(Cl)cc2)Cc2ccco2)cc1	-5.91%
COc1cc(C(=O)N/C(=C/c2ccc(N(C)C)cc2)C(=O)O)cc(OC)c1OC	-4%
Cc1ccnc(NC(=O)C(C)N2C(=O)c3ccccc3C2=O)c1 (stereo not shown)	-5.28%
CC(=O)/C=C/c1c(C)n(C)c2ccc([N+](=O)[O-])cc12	-3.13%
O=C(NCc1ccccc1)c1cc(C2CC2)[nH]n1	-6.42%
COc1cc(C)nc(Nc2nc(C)c3ccc(C)cc3n2)n1	-0.511%
COc1ccc(NC(=O)CN2C(=O)c3cccc4cccc2c34)cc1Cl	-0.949%
CC1=C(C(=O)OC2CCCC2)C(c2ccc(Cl)cc2)NC(=O)N1 (stereo not shown)	1.57%
O=C(NC1CON=C1Br)OCC1c2ccccc2-c2ccccc21 (stereo not shown)	-0.48%
O=C1c2ccc3c4c(ccc(c24)C(=O)N1Cc1cccnc1)C(=O)N(Cc1cccnc1)C3=O	-0.413%
COc1ccc(N2C(N)=C(C#N)C(c3ccc(F)cc3)C3=C2CC(C)(C)CC3=O)cc1 (stereo not shown)	2.45%
O=C1CNC(=O)/C1=C/c1ccc(O)cc1	1.7%
Cc1ccc(/C=C(\NC(=O)c2ccccc2)C(=O)NCCC2=CCCCC2)o1	1.02%
C=CCOc1ccc(C2C(C(=O)c3ccc(OC)cc3)=C(O)C(=O)N2CCN(C)C)cc1 (stereo not shown)	0.487%
COc1ccc(CN2CCC(N3CCCCC3)CC2)cc1Br	4.75%
CCn1cc(C2=NOC(C(=O)NCC34CC5CC(CC(C5)C3)C4)C2)c(C)n1 (stereo not shown)	-8.58%
COc1ccccc1CNC(=O)c1nnc(-c2ccc3c(c2)OCO3)o1	-11.1%
CCOC(=O)c1sc(N2N=C(C)/C(=C\c3ccc(CC)s3)C2=O)nc1C	-0.85%
CCOCCCNC(=O)CSc1c2c(nc3ccc(Cl)cc13)CCCC2	-8.9%
CCCCSc1nc(O)c2cnn(-c3ccc(F)cc3)c2n1	-0.363%
Cc1cccc(CNC(=O)CCCn2nc(C)c3c(C)n(-c4ccccc4)nc3c2=O)c1	-1.05%
CC1=C(C(=O)Nc2cccc(C)n2)C(c2ccc(Br)cc2)C2=C(O)CCCC2=N1 (stereo not shown)	-4.64%

Structure (SMILES)	% Inhibition @ 10 uM
COc1ccc(C2=N/C(=C\c3cc(Br)ccc3OC)C(=O)O2)c(Cl)c1	4.22%
CCOC(=O)C1=C(C)N=c2s/c(=C/c3c[nH]c4ccccc34)c(=O)n2C1c1cccs1 (stereo not shown)	-1.4%
COc1ccc(C2N(C(=O)CSc3ccccn3)CCN2S(=O)(=O)c2ccc(C)cc2)cc1 (stereo not shown)	7.99%
Cc1ccc(/C=C2\SC(N3CCN(C)CC3)=NC2=O)cc1	4%
Cc1cccnc1NC(=O)c1cc2ccc3cccnc3c2[nH]1	3.11%
Cc1ccc(NC(=O)c2ccc(C(=O)Nc3ccc(C)cc3[N+](=O)[O-])cc2)c([N+](=O)[O-])c1	0.827%
Cc1ccc(CCNC(=O)CC/N=c2/c(N3CCCC3)c(O)c2=O)cc1	-7.29%
COc1ccc(C(=O)Nc2ccc(S(=O)(=O)N3CCCCC3)cc2)cc1Br	7.67%
COc1cccc(NC(=O)c2cc(OC)cc(OC)c2)c1	-3.26%
CCc1ccccc1NC(=O)CN(c1cc(OC)ccc1OC)S(C)(=O)=O	-3.78%
COc1c(C(=O)N[C@@H](CC(C)C)C(=O)NCC#N)csc1-c1ccccc1	1.71%
CC1CCC(NC(=O)C2CCN(C(=O)c3cc4sccc4n3C)CC2)CC1 (stereo not shown)	-1.58%
Clc1ccc(-c2csc(Nc3ccc(Oc4ccccc4)cc3)n2)cc1	-4.03%
O=C(O)CCn1ccnc1	-2.91%
Cc1cc([N+](=O)[O-])ccc1NC(=O)COc1ccc(Cl)cc1Cl	-9.6%
CC(c1ccccc1)C1CC(=O)N(Cc2ccccc2)C1=O (stereo not shown)	0.812%
CCCN(CCO)Cc1ccc(F)c(F)c1	1.62%
CCOc1ccc(CNS(=O)(=O)c2cc(-c3cc(C)no3)ccc2OC)cc1	-7.87%
CCC(Sc1nncn2c1cc1sccc12)C(=O)N1CCOCC1 (stereo not shown)	5.18%
CC1=NN(c2nc3ccccc3[nH]2)C(=O)C1Cc1ccccc1 (stereo not shown)	0.221%
CCOCCCNC(=O)Cn1cc2c(n1)CCCC2	4.95%
N#CC1=C(N)OC2=C(C(=O)CCC2)C1c1cccc(OCc2ccccc2)c1 (stereo not shown)	-1.98%
